Some of the results follow. At the low end of the ranking, values are background and their order means little.

This assay concerns the target T1, GST-Rok-C97-191 (UniProt O34857).
T1 sequence: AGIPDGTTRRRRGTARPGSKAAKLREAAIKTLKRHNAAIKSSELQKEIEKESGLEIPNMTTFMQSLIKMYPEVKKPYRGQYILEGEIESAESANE
Nature of the assay: protein binding microarray.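 Note: rank score from −0.5 (least bound) to 0.5 (best bound).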 The settings on record: Rok is a gene silencer of Bacillus subtilis; high values mean tight binding; most listed sequences are background and not binding sites; double strand, one strand shown.
GGGGTGTA: the binding signal was -0.0373 E-score.
In the case of CTCGAATA it was 0.0526 E-score; in that of CAAGTGGC, 0.000617 E-score.
Sequence CAGTGCGA showed a binding signal of -0.227 E-score.
In the case of GATTTGCA it was 0.0398 E-score; in that of TAGTAAGA, 0.284 E-score.
In the case of AGGTACTA, the binding signal is 0.229 E-score.
AGGTAATC: the binding signal was -0.194 E-score.
The sequence ATTGGATG yielded a binding signal of 0.056 E-score.
Regarding GTATGTGA, the binding signal was found to be 0.184 E-score.
In turn, ACAGTACA yielded a binding signal of 0.0766 E-score.
In the case of ACCTCCGC, the binding signal is -0.159 E-score.
Sequence GGCGTCCA came in with a binding signal of -0.17 E-score.
For the sequence AATTATAG, the binding signal is 0.303 E-score.
Sequence AAACAGGT came in with a binding signal of -0.064 E-score.
Turning to ATAGACGC, the binding signal is -0.0442 E-score.
Consider CCATGGCC, for which the binding signal was -0.119 E-score.
On to AGCGCTTG, for which the binding signal is -0.0354 E-score.
In turn, ACACCCCG displayed a binding signal of -0.143 E-score.
With TACGTCTA the figure was 0.116 E-score; with ACCTAGCC, -0.14 E-score; with CGAATCTA, 0.256 E-score.
In the case of GATATCGC, the binding signal came to 0.201 E-score.
As to CTGCTAGA, the binding signal was determined as 0.0982 E-score.
With GACTATCA the figure was -0.147 E-score; with AGCAACTC, 0.138 E-score.
With CTAACTGA the figure was 0.0665 E-score; with ACAGTAGA, 0.364 E-score; with AACATCCA, 0.176 E-score.
With CAACGCGC the figure was -0.0959 E-score; with GTCTACAA, -0.0759 E-score.
On to GAGCCGGC, for which the binding signal was -0.272 E-score.
The sequence GGTGGTGA returned a binding signal of -0.135 E-score.
Regarding GAGTCCCC, the binding signal was -0.343 E-score.
Turning to CTGCGGTC, the binding signal was -0.246 E-score.
For ACACAGAA, the binding signal is 0.154 E-score.
AAAGCCCG showed a binding signal of -0.187 E-score.
AACCGCAT registered a binding signal of 0.0225 E-score.
Sequence CGATGGAG registered a binding signal of -0.0357 E-score.
In the case of CTGTTATA, the binding signal worked out at 0.287 E-score.
Take AGTACTAG: the binding signal was 0.334 E-score.
As for AAGGCCCG, the binding signal was -0.344 E-score.
AGGTTTTC registered a binding signal of 0.0532 E-score.
With ATCTGATG the figure was 0.175 E-score.
TGTATTAA: the binding signal is 0.294 E-score.
Take ATGGGTGC: the binding signal was -0.0815 E-score.
In turn, AAGTATAA showed a binding signal of 0.187 E-score.
Turning to ATTGGTCA, the binding signal is 0.111 E-score.
In the case of ATGTGTAG, the binding signal is 0.186 E-score.
As for AACTCTCC, the binding signal is -0.134 E-score.
CCCCTAAC returned a binding signal of -0.284 E-score.
Sequence AAGGTACC displayed a binding signal of 0.184 E-score.
The sequence CGCCAATA came in with a binding signal of -0.084 E-score.
For ACCTCAAA, the binding signal was 0.0059 E-score.
Turning to AGGCTTCC, the binding signal was -0.222 E-score.
With AGTTGAGC the figure was -0.00213 E-score; with TCTTCCCA, -0.0301 E-score; with CCGCCCTC, -0.366 E-score.
Regarding ATTAAGGA, the binding signal is -0.113 E-score.
In the case of CTGTTTCA it was -0.0409 E-score; in that of ATGCGAAG, 0.124 E-score; in that of AATCCTAA, 0.0587 E-score.
As to GTCACGCA, the binding signal is -0.0829 E-score.
With AAGCAGTC the figure was -0.0777 E-score; with AGCGAAAA, 0.211 E-score.
In the case of CCAGCTAA, the binding signal came out at 0.058 E-score.
For the sequence AGGGGCCC, the binding signal was -0.406 E-score.
In the case of CGGGAATC it was -0.231 E-score; in that of AGATGTTA, 0.107 E-score; in that of GGCGCCAC, -0.253 E-score.
On to CATCGACG, for which the binding signal is -0.111 E-score.
In turn, ATTCAGCA yielded a binding signal of 0.19 E-score.
Take CGCTCTCC: the binding signal is -0.284 E-score.
Take GCCTTTTA: the binding signal was -0.0356 E-score.
For the sequence ATCATCGG, the binding signal is -0.0327 E-score.
In the case of ACGGCTTC, the binding signal is -0.108 E-score.
Sequence GCCTAATA registered a binding signal of 0.0461 E-score.
With GCAATTTA, the binding signal amounted to 0.257 E-score.
In the case of CCCCTCGA it was -0.219 E-score.
In turn, ATTTAGAG registered a binding signal of -0.0563 E-score.
CTGCGGCA showed a binding signal of -0.256 E-score.
The sequence GTATTCAA came in with a binding signal of 0.0723 E-score.
Take AAAGTAGC: the binding signal is 0.261 E-score.
On to CCAGTGTA, for which the binding signal came out at 0.0845 E-score.
Sequence ACGGTTAA yielded a binding signal of -0.0663 E-score.
CTGGAGGA: the binding signal was -0.0909 E-score.
With GGAATGAC, the binding signal was -0.0142 E-score.
In the case of CTTTCTGA it was -0.131 E-score; in that of CCGGATAG, -0.168 E-score.
With AGTCGTCC the figure was -0.0543 E-score.
CGAGCCAC returned a binding signal of -0.19 E-score.
In turn, AGACCAAC came in with a binding signal of -0.229 E-score.
In turn, CGTCCGCC registered a binding signal of -0.271 E-score.
Sequence GCCGAAAA returned a binding signal of 0.0932 E-score.
Take AGAACTCG: the binding signal is -0.145 E-score.
Sequence CGGAGGTA had a binding signal of -0.0536 E-score.
Sequence GCTGCGCC returned a binding signal of -0.0516 E-score.
AGTAGGTG yielded a binding signal of 0.127 E-score.
CCGCCGAG came in with a binding signal of 0.0964 E-score.
In the case of TCATCGAA it was -0.0838 E-score; in that of AAATCTCG, 0.146 E-score.
As to CGCATCAC, the binding signal was -0.154 E-score.
On to AGATTGGG, for which the binding signal is -0.00462 E-score.
CTGTTCCA showed a binding signal of -0.161 E-score.
Regarding AGGACAAG, the binding signal is 0.0165 E-score.
In turn, CTTACGGC yielded a binding signal of -0.196 E-score.
For AGAGCACT, the binding signal is -0.254 E-score.
Regarding CGCCATAG, the binding signal was -0.17 E-score.
For the sequence CGTCACTC, the binding signal was -0.0148 E-score.
Sequence AACGCTAT showed a binding signal of 0.0771 E-score.
Sequence GCTCGCCA yielded a binding signal of -0.157 E-score.
AAAAGCCG displayed a binding signal of 0.0236 E-score.
In the case of GATTAGAC, the binding signal was determined as 0.0246 E-score.
With ACATAGTG, the binding signal stood at 0.0308 E-score.
Sequence GTTGAATA came in with a binding signal of 0.173 E-score.
As to GCGACACA, the binding signal is -0.0711 E-score.
Take AGACAGAG: the binding signal is -0.118 E-score.
With AGGGAACT, the binding signal was -0.0487 E-score.
In the case of GTGCTCTA it was -0.182 E-score; in that of GACGACCC, -0.143 E-score.
For CCTCAATA, the binding signal was 0.064 E-score.
Consider CTATGAGA, for which the binding signal turned out to be 0.0366 E-score.
Sequence AACTTCCT came in with a binding signal of -0.151 E-score.
Sequence AACAGATT came in with a binding signal of -0.0624 E-score.
Sequence CGGCCAAA displayed a binding signal of -0.0805 E-score.
Consider GTAATGCA, for which the binding signal came out at 0.083 E-score.
CCTTCATA: the binding signal came to 0.0461 E-score.
In turn, AGTAGCCC returned a binding signal of -0.169 E-score.
Consider TACCACCA, for which the binding signal was determined as 0.196 E-score.
As for ACAATCCA, the binding signal was 0.0177 E-score.
Regarding AGCGCCCC, the binding signal was -0.198 E-score.
With GCGGTCCC, the binding signal is -0.244 E-score.
CTTTAGCA: the binding signal is -0.0326 E-score.
GTCTCTCA showed a binding signal of -0.13 E-score.
For the sequence GCGCCTCA, the binding signal is -0.369 E-score.
As to AGTTTTAA, the binding signal is 0.0365 E-score.
CTCTTACA displayed a binding signal of -0.034 E-score.
With AGCCCTAC, the binding signal was -0.0154 E-score.
In the case of CGCGTTAC it was -0.0817 E-score; in that of GCATCTGA, -0.0514 E-score; in that of ACTTAAAC, -0.0216 E-score.
In turn, CCCGCTAG came in with a binding signal of -0.117 E-score.
In turn, TAAAGGTA came in with a binding signal of 0.167 E-score.
The sequence ACCTCCGT gave a binding signal of -0.238 E-score.
Turning to TTCTTCAA, the binding signal is -0.0566 E-score.
On to CGACAGGA, for which the binding signal is -0.321 E-score.
GGAAGAAA gave a binding signal of 0.124 E-score.
The sequence ACGAGAGC yielded a binding signal of -0.131 E-score.
The sequence CCCAAGCC returned a binding signal of -0.216 E-score.
ACTTGGTC yielded a binding signal of -0.0788 E-score.
For the sequence ACACCACC, the binding signal was -0.0215 E-score.
CCTATGCA came in with a binding signal of -0.106 E-score.
On to CTCGACCA, for which the binding signal was -0.0351 E-score.
AATCAAGG yielded a binding signal of 0.0133 E-score.
The sequence ACGCAAAT displayed a binding signal of -0.00499 E-score.
Turning to TCCAAAAA, the binding signal is 0.0483 E-score.
For CCCGCGCG, the binding signal is -0.274 E-score.
CGCAACGA yielded a binding signal of -0.106 E-score.
Sequence AGATAACG returned a binding signal of 0.196 E-score.
CTTGAACC showed a binding signal of -0.194 E-score.
In the case of TAAGTAGA it was 0.317 E-score.
With GGGAGGTA the figure was 0.048 E-score; with ATACTGGG, 0.157 E-score; with CTTTTATC, 0.0697 E-score.
Regarding GCGGTCCA, the binding signal is -0.138 E-score.
Turning to AAGGCCAT, the binding signal is -0.215 E-score.
In the case of GAAAGATC it was 0.0102 E-score.
As to ATGGCCAT, the binding signal amounted to 0.151 E-score.
Turning to TAACCGTA, the binding signal is 0.169 E-score.
AAGGCGAC registered a binding signal of -0.238 E-score.
In the case of AACTACGG, the binding signal came out at 0.19 E-score.
Regarding AGATCAAA, the binding signal came out at 0.00988 E-score.

The values above are taken from article PMC6212790.
